# Assay results from the supplement of paper PMC11417369.
# ± gives the standard deviation of the averaged measurements. The list shows a part of the results.
# Tested on: PfAP2-G AP2 domain (GST-tagged)
# Assay: gcPBM binding intensity (ln(normalized median fluorescence intensity)); higher = stronger DNA binding
# In short: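 Alexa488 anti-GST antibody, scanned at 488 nm, detected GST-tagged P. falciparum DNA-binding domains that had been expressed in E. coli and incubated for 1 h on an Agilent 4 × 180k array. The array carried primer-extended double-stranded 36-bp intergenic genomic probes and negative controls. Binding intensity is the highest Masliner-normalised natural-log median intensity across replicate spots of either orientation of each probe.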
row,Sequence,gcPBM binding intensity (ln)
1,TTAAATAGCTGTAATTGTACAAATAAATACATAAAT [XGTACX_site3097],10.8 ± 0.45
2,TATAGTAATATTTGAAGTACAAAATTAAAATAAATA [XGTACX_site7634],11.2 ± 0.69
3,TATATTATTTTTTATTGTACTTAAAAATATTATTTG [XGTACX_site1443],11.4 ± 0.95
4,TAAATATATATATGGTGTACCATTTTGGGTTAATAT [XGTACX_site2706],11.1 ± 0.57
5,GGGAGGATATTTCACAGTACCCAGGAAATCTGCGGA [XGTACX_site2555],11 ± 0.84
6,TTAATATTTTGATGTGTACACATTAAAATAGTTTTA [CACACA_site5712],11.8 ± 0.89
7,ACAATTACTTATTTTAATTTTTTTAATCTATTGATT [CACACA_negctrl_site967],9.65 ± 0.12
8,AATAACAATTATAAAAGTACAGATTTTTATTTCTAA [XGTACX_site5746],11.1 ± 0.79
9,TCCTTATTTTGCAGGAGTACCATTTTTTAAAAATAC [XGTACX_site5968],11.4 ± 0.73
10,TACTTTTCTTAAAGATGTACGTTTTAAAAATAAAAT [XGTACX_site14],11.4 ± 0.98
11,CAACAATTTCGTCATACACACATTCAGAATATATAT [CACACA_site2370],10.27 ± 0.099
12,TAAATACATAAAAATTGTACACATTGTTTTCTCTTT [XGTACX_site6435],11.3 ± 0.83
13,TTTTTTTTGTTATGAACATGCAAATTAAAATATAAT [TGCATGCA_site954],10.1 ± 0.35
14,AAGGAAATAATTAAATGTACAAAAAAAAAAAAAATT [XGTACX_site562],10.7 ± 0.4
15,AAAATAAAAATTAACTGTACATACATTATTCAAATT [XGTACX_site6106],11.2 ± 0.66
16,ATATTTTTTTTTCTTTCGCACACGTGAAAGAATTTC [CACACA_site8636],10.2 ± 0.21
17,TTTTATGCTCAATTATTAAGAAATACTTTTTCTTCC [XGTACX_negctrl_site208],10.02 ± 0.042
18,TTAAAAAAAATATAATGTACTTGTAGAATTATATTT [XGTACX_site6220],11 ± 0.76
19,TATATTTTTTATAAATGTACATGGATAGGCATAAAC [XGTACX_site8401],11.2 ± 0.61

row,Sequence,gcPBM binding intensity (ln)
1,TCAAAAATGAGTTACACACACACATATATATATATA [CACACA_site2229],10.2 ± 0.35
2,ATATGAATAAATAAAAGTACATACATAATGTATTAT [XGTACX_site5969],11.3 ± 0.69
3,TATAAAAAATAATTATCATGAAATATATGATCATCA [TGCATGCA_negctrl_site137],9.65 ± 0.071
4,ATTATTATTTATATGATACACACGTACATATACGCA [CACACA_site3823],11.5 ± 1.1
5,TAATAATAAAATATTTGTACATATAAAATATGGCTG [XGTACX_site7904],10.9 ± 0.57
6,AATATAATGCAATATACACACATATATTTCTCTTTT [CACACA_site7276],9.64 ± 0.19
7,AGTATATAAAATACTGTATCGATGGGGGAGGGCGCA [CACACA_negctrl_site1612],11.4 ± 0.73
8,ACAAATAAATAAAAAACACACACAAATAAATAAATA [CACACA_site8708],9.905 ± 0.049
9,AATTTTTTTCTCCAAGTGCATTAGAACATTAACGTA [GTGCAC_site9413],10.2 ± 0.26
10,ATATATTTATGTATCACACACAAAAAAAAAAAATAA [CACACA_site255],10.1 ± 0.29
11,TATATATTAATAAATAGTACCCGTGGAATTTATATT [XGTACX_site5855],11.1 ± 0.54
12,GTTGCAATTAACACTAGTACATATAAGTAGTTTATT [XGTACX_site2063],10.9 ± 0.57
13,ATTGTTCTCCAAAAGTGTACGTATTATTTTTCTGGA [XGTACX_site1404],11.6 ± 0.76
14,TATTAATCTTTTTTTAAACAAAAAATTAAGCAAATT [CACACA_negctrl_site884],9.795 ± 0.035
15,AGTATAAGCATTATTGTGCACATAATTATAATTTTT,10.4 ± 0.16
16,AGTTTAAATTAAATTACACACTACGAATAATATATT [CACACA_site7811],9.895 ± 0.007
17,TATATATTATATATATGTACATACTTTTTACGTTCA [XGTACX_site2493],11.3 ± 0.72
18,AAATTAATTAAATATACACACATATATAGATATATA [CACACA_site6321],9.53 ± 0.26
19,ACCACATTTTTTTTTGCATGTTGTTTAAAAAAAGGC [TGCATGCA_site137],10.1 ± 0.14

row,Sequence,gcPBM binding intensity (ln)
1,AATTATTGTGAAGGGAAAACAAAAAAGTTTATAATT [CACACA_negctrl_site1337],9.995 ± 0.092
2,AACTAATAAAAAAAAAGTACACAATATGTAAATAAC [XGTACX_site5263],11.6 ± 0.91
3,AAGCGAATATATATCACACACAAAAAAATCAGACTA [CACACA_site2108],9.94 ± 0.11
4,AACAAATATATTAACACACAAACATATAAACCAATG [CACACA_site3970],10.1 ± 0.11
5,TAAAACACTCATGGCACACATAAAACATTTTTATGA [CACACA_site3574],10.2 ± 0.31
6,TATATATAATATATATGTACATAATATATTTTATAT [XGTACX_site2909],11.2 ± 0.73
7,ATATATTTTTTTTTTTGTACGTATATTTATATAATT [XGTACX_site8719],11.4 ± 0.69
8,GAAAGAAAGAAAGAAAGTACATATAAAAATATACAT [XGTACX_site7299],11.2 ± 0.88
9,TAAAGATATAAATGCACACGTATTAAAAAAAAAATA [CACACA_site952],10.29 ± 0.057
10,TTATCATTACATGAGTGTACATTATTATATTTTTTT [XGTACX_site7845],11 ± 0.5
11,TAATATGAATATATATGTACATACAATTTGTTATAT [XGTACX_site5815],11.2 ± 0.51
12,ATTAAATGTATGACTTGTACATAAAATAAAAAAAAA [XGTACX_site6555],10.9 ± 0.54
13,ATGATAGTAATTAATAGTACTTTTTTTGATACAAAA [XGTACX_site4288],11.3 ± 0.82
14,TCGTGTTTTAAAAAAATGAAGAAAAGTAAAAAAAAA [XGTACX_negctrl_site23],9.97 ± 0.18
15,TGAATCTATATACAGGTGCGTAAAAAATAACTTATA,10.2 ± 0.34
16,ATTAGTGACATTATTACACACAAAAGAAAACAGAAA [CACACA_site3984],10.23 ± 0.071
17,AAAAAAAAGGAAAAGGGTACAAAACCATACTTACAT [XGTACX_site4783],11 ± 0.67
18,CAAGAATTAAAATAAAGTACAAAAGTAACAACTTTT [XGTACX_site1474],11.2 ± 0.64
19,ATCTCTACAAAGTGCACACACGTAAAAACATATATA [CACACA_site6046],10.6 ± 0.52
